Data: PMC12040169 (PLOS Biology, 2025)
This is one part of the list.

Each molecule was assayed on T1, C. trachomatis L2/434/Bu expressing GFP (CTL2-GFP). Conditions: total inclusion area; 28.5 h, 10 µM; inhibitor.
T1 construct: L2/434/Bu GFP intracellular growth in HeLa cells
Design: species or system HeLa; C. trachomatis total inclusion area by high-content imaging, normalised to DMSO
How it was run: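 Post-fluorescence-read fixation, DNA staining with Hoechst and high-content imaging; GFP inclusion area and number per well, and nuclei counts, used as proxies for bacterial growth and host viability.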

Row | Structure (SMILES) | % of control remaining
1 | NC(=O)CN1CCC(Oc2cncc(OCc3ccc(Cl)c(Cl)c3)n2)C1 (stereo not drawn) [CBK084429] | 91.5334
2 | Cc1ccc(CN(c2ccc(C(=O)O)cc2)S(C)(=O)=O)cc1 [CBK287203] | 89.2967
3 | CCCN1CCC(CNC(=O)c2cc3ccc(OC)cc3n2C)CC1 [CBK282542] | 129.217
4 | CCCNc1cncc(-c2cccc(CO)c2)n1 [CBK065433] | 113.012
5 | Cc1cc2nc(-c3cc(NC(=O)c4cccc([N+](=O)[O-])c4)ccc3O)oc2cc1C [CBK262855] | 85.7249
6 | NC(=O)COc1ccc(CNC(=O)CN2CCc3sccc3C2)cc1 [CBK306111] | 87.0353
7 | CSc1nc(C)c(CCC(=O)N(C)Cc2c(C)nn(-c3ccccc3)c2C)c(=O)[nH]1 [CBK297925] | 82.0369
8 | Cc1cc(NS(=O)(=O)c2ccc(NC(=O)c3cc4ccccc4o3)cc2)no1 [CBK267597] | 112.709
9 | CS(=O)(=O)Nc1nccnc1N1CCN(Cc2ccc([N+](=O)[O-])cc2)CC1 [CBK084274] | 82.7297
10 | Cc1ccc2nc(SCC(=O)O)nc(C)c2c1 [CBK265996] | 98.3181
11 | CCN(C(=O)Nc1cccnc1Oc1ccc(F)cc1)C1CCOCC1 [CBK306535] | 57.8655
12 | O=C(CCS(=O)(=O)c1ccccc1)NCc1ccccc1OC1CCNC1 (stereo not drawn) [CBK028296T] | 74.3595
13 | CC(=O)Nc1ccc(N2CC(C(=O)O)CC2=O)cc1 (stereo not drawn) [CBK287149] | 97.9148
14 | Cc1ccn(-c2ccc(N3CCC(OC4CCOCC4)CC3)nn2)n1 [CBK306296] | 57.3399
15 | CCC(CN(C)C)C(=O)c1ccccc1 (stereo not drawn) [CBK015409C] | 72.7908
16 | CCOC(=O)N1CCN(CC2CCCCN2)CC1 (stereo not drawn) [CBK022780G] | 53.4432
17 | O=C(NC(c1ccc(Cl)cc1)c1ccsc1)C1CCN(S(=O)(=O)CC(F)(F)F)CC1 (stereo not drawn) [CBK060088] | 72.9877
18 | Cc1ccc2nc(-c3ccccn3)cc(C(=O)NCc3ccccn3)c2c1 [CBK267782] | 112.111
19 | S=C1NC2(CCCCC2)NC12CCCCC2 [CBK006533] | 77.0665
20 | Cc1nc([N+](=O)[O-])c(C(=O)OCc2ccccc2C#N)n1C [CBK293991] | 106.72
21 | CC(Cn1cc(Cl)cn1)C(=O)N1CCN(C)CC1c1ccccc1 (stereo not drawn) [CBK282016] | 99.0057

Row | Structure (SMILES) | % of control remaining
22 | O=C1CN(S(=O)(=O)CCOc2ccccc2)CC(=O)N1CCc1ccccc1 [CBK261134] | 91.8118
23 | CC(C)Nc1cccnc1N(C)C1CCN(C(=O)c2cc(Br)c[nH]2)CC1 [CBK016797] | 63.1294
24 | O=C(C1CC1)N1CCCc2cc(C(O)CN3CCCCC3)ccc21 (stereo not drawn) [CBK282135] | 102.127
25 | Cc1ccc(-c2noc(CN(C(=O)c3ccc(Br)o3)C(C)C)n2)cc1 [CBK269440] | 48.0158
26 | COCCn1c(CN2CCOCC2)nc2c1c(=O)[nH]c(=O)n2C [CBK269890] | 85.7869
27 | CN(C)C(=O)c1cc(-c2ccco2)cnc1NS(C)(=O)=O [CBK076490] | 107.287
28 | CC1(C)N=C(c2ccc(Cl)cc2Cl)C(=S)N1 [CBK288449] | 73.4228
29 | Cn1nc(-c2ccc(S(=O)(=O)Nc3cccc(C(=O)O)c3)s2)cc1C(F)(F)F [CBK155080] | 89.6417
30 | O=C1NCCN(C(=O)c2cccc3cccnc23)C1Cc1ccc(-c2cccs2)cc1 (stereo not drawn) [CBK285809] | 87.2385
31 | CC1=CC(C)(NC(N)=O)NC(=S)N1 (stereo not drawn) [CBK020817] | 28.4547
32 | CCc1cnc(CNC(=O)NCc2nc3cc(C)ccc3n2C)s1 [CBK306261] | 72.3652
33 | C=CCNc1nccnc1-c1cccnc1 [CBK037016] | 115.696
34 | O=C(CC1CCCCC1)N1CCC2(CCCNC2)C1 (stereo not drawn) [CBK137154C] | 91.0461
35 | Cc1ccc(N(CC(=O)N/N=C/C(C)C)S(=O)(=O)c2ccccc2)c(C)c1 [CBK262397] | 103.077
36 | Cn1c(=O)n(CC(=O)NC2(C)C3CCC(C3)C2(C)C)c2cccnc21 (stereo not drawn) [CBK283330] | 109.13
37 | CCNC(CO)c1ccccc1 (stereo not drawn) [CBK061785] | 19.1466
38 | Cc1cc(C(F)(F)F)nc2sc(C(=O)c3ccc4c(c3)OCO4)c(N)c12 [CBK074388] | 52.0329
39 | O=C(O)CCC(=O)Nc1ccc(Sc2ccc([N+](=O)[O-])cc2)cc1 [CBK020438] | 95.1271
40 | O=C(O)c1ccc(S(=O)(=O)NCC2CCCO2)cc1 (stereo not drawn) [CBK262364] | 105.2
41 | Cc1ccc(C)c(C2CCCN2C(=O)c2cccn(CC(=O)NC3CCCCC3)c2=O)c1 (stereo not drawn) [CBK286010] | 114.21
42 | Nc1ccn([C@H]2C[C@@H](O)[C@@H](CO)O2)c(=S)n1 [CBK201187] | 115.667

Row | Structure (SMILES) | % of control remaining
43 | CCCNC(=O)CN(C)CC(=O)Nc1sc2c(c1C#N)CCC(C)C2 (stereo not drawn) [CBK305845] | 41.9175
44 | O=C(Nc1ccc2c(c1)OCCO2)c1cnccn1 [CBK220830] | 92.5481
45 | CS(=O)(=O)N(CC(=O)Nc1ccccc1F)c1ccc(I)cc1 [CBK265265] | 98.0965
46 | O=C(O)C1Cc2nc[nH]c2C(c2ccc(F)cc2)N1 (stereo not drawn) [CBK286970] | 77.3572
47 | CCCN1CCN(C(=O)c2ccc(=O)n(C)c2)C(Cc2ccccc2-c2ccccc2)C1=O (stereo not drawn) [CBK285836] | 101.328
48 | COc1ccc(C(=O)Cn2nc3nnc(-c4ccccc4)c(-c4ccccc4)n3c2=O)cc1 [CBK286181] | 123.837
49 | COC(=O)c1sc(NC(=O)c2cccnc2)c(C#N)c1C [CBK265007] | 91.2972
50 | CC(=O)Nc1cccc(NC(=O)N2CCN(C3CCN(C)CC3)CC2)c1 [CBK155901] | 78.2728
51 | O=C(Nc1ccc(Cl)cc1)C(Cc1ccccc1)N1C(=O)c2cc(Cl)c(Cl)cc2C1=O (stereo not drawn) [CBK264172] | 98.0643
52 | Cc1cc(C)c(NC(=O)C2CCCCN2C23CC4CC(CC(C4)C2)C3)c(C)c1 (stereo not drawn) [CBK261559C] | 93.4001
53 | Cc1nc2ccccc2c(=O)n1Cc1cccnc1 [CBK288092] | 87.5758
54 | NC(=S)N1N=C(c2ccccc2)CC1c1ccccc1 (stereo not drawn) [CBK288435] | 51.261
55 | O=C(CCC1CCCCC1)Nc1c[nH]c(=O)[nH]c1=O [CBK287867] | 61.5951
56 | O=C(O)C1CSC(c2ccc(-c3cccc(Cl)c3)o2)N1 (stereo not drawn) [CBK286997] | 87.3741
57 | Oc1cccc(OCCOc2nccc(C(F)(F)F)n2)c1 [CBK115903] | 94.1191
58 | CCCc1nn(CC(=O)N2CCCC2)c(=O)c2cc3ccsc3n12 [CBK284145] | 85.385
59 | COc1ccc(CCC(C)NC2CCCc3c2[nH]c2ccc([N+](=O)[O-])cc32)cc1 (stereo not drawn) [CBK262876] | 16.7511
60 | O=C(NC(C(=O)N/N=C/c1coc2ccccc2c1=O)c1n[nH]c(=O)c2ccccc12)c1ccccc1 (stereo not drawn) [CBK262847] | 88.2569
61 | OC1(Cn2ccc3ncccc32)CCN(Cc2cccs2)CC1 [CBK284783] | 77.9519
62 | O=C(O)/C=C/c1ccccc1OCC(=O)NC1CCCCC1 [CBK286900] | 57.014
63 | Cc1oc(C(=O)N2CCc3sccc3C2c2ccccc2)cc1CN1CCOCC1 (stereo not drawn) [CBK285566] | 88.2733

Row | Structure (SMILES) | % of control remaining
64 | COc1cccc(Cn2c(=O)n(C)c3ncccc32)c1 [CBK282391] | 82.6049
65 | COc1ccc(-c2cn(-c3cccc(NC(C)=O)c3)nn2)cc1 [CBK113008] | 92.8323
66 | COc1cccc(C2(C(=O)N3CCc4nc[nH]c(=O)c4C3)CC2)c1 [CBK304488] | 62.819
67 | O=C(c1cscn1)N1CCCc2ccccc21 [CBK200348] | 67.4277
68 | O=C(Nc1ccc(-c2nnc(-c3ccco3)o2)cc1)C(c1ccccc1)c1ccccc1 [CBK263452] | 111.687
69 | O=C1CCC(=O)N1CCOc1nccnc1N1CCN(Cc2ccc([N+](=O)[O-])cc2)CC1 [CBK084294] | 91.9347
70 | COC(=O)c1cc(C#N)c(=O)n(CC(O)COc2ccccc2)c1 (stereo not drawn) [CBK304991] | 5.422
71 | O=C(NCCn1nc(-c2cccs2)ccc1=O)c1ccco1 [CBK283838] | 81.3875
72 | COc1ccc(CNC(=O)CSc2cnn[nH]2)cc1 [CBK269881] | 62.7998
73 | CC1SC2(C(=O)Nc3ccccc32)N(c2ccc(F)cc2)C1=O (stereo not drawn) [CBK093463] | 104.929
74 | COc1ccc(Nc2ccc(-c3ccsc3)cn2)c(C)c1 [CBK036855] | 74.2719
75 | CN(Cc1ccc2c(c1)OCCO2)C(=O)CSc1n[nH]c(=O)n1Cc1ccccc1 [CBK297876] | 77.1405
76 | Clc1ccccc1-c1nccnc1NCc1cccs1 [CBK037362] | 127.099
77 | Cc1cc(Cl)cc(Cl)c1S(=O)(=O)Nc1nc2c(s1)C(=O)CC(C)(C)C2 [CBK200034] | 96.4944
78 | Cc1nc(CCC(=O)N2Cc3cnn(Cc4ccc(F)cc4)c3C2)n[nH]1 [CBK306993] | 78.2766
79 | COc1ccccc1NC(=O)c1sc2ncn(CC(=O)NC3CCCCC3)c(=O)c2c1C [CBK265788] | 106.435
80 | Cc1cc(F)c(S(N)(=O)=O)cc1NC(=O)c1ccc(CN2CCOCC2)o1 [CBK059376C] | 104.545
81 | CC(=O)Nc1ccc(Nc2cc(-c3ccc(CC(C)C)cc3)ncn2)cc1 [CBK090723] | 125.255
